The source of these data is the BET-seq Pho4 binding data (Le et al. 2018).

This is one part of the list. The energies were worked out here from pooled read counts, against the library average; single values are noisy.

This test concerns the target T1, Pho4 (S. cerevisiae) (UniProt P07270).
T1 sequence: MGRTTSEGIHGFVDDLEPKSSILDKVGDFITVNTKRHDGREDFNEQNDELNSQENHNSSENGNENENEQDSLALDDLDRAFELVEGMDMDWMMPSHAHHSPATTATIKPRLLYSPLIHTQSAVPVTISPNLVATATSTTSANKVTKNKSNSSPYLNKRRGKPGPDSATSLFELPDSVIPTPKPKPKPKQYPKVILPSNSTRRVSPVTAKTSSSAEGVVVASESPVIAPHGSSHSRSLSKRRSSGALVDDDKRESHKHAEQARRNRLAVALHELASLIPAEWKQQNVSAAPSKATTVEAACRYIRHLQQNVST
In words: relative binding free energy (BET-seq); higher = weaker binding. The settings on record: reference: library average.
For AGGATCACGTGTTGTG, the “relative binding free energy” value was 0.17 kcal/mol.

On to TTGCACACGTGATGTG, for which the “relative binding free energy” value amounted to 0.03 kcal/mol.

With TGTCACACGTGAGGGT, the “relative binding free energy” value came to 0.31 kcal/mol.

Take ATGTTCACGTGATTTC: the “relative binding free energy” value turned out to be 0.32 kcal/mol.

In the case of ACGATCACGTGTAGGT, the “relative binding free energy” value was 0.09 kcal/mol.

Turning to GTGATCACGTGTTCTA, the “relative binding free energy” value came to 0.15 kcal/mol.

For TATGTCACGTGCAGAT, the “relative binding free energy” value turned out to be 0.11 kcal/mol.

For GTAGTCACGTGACGGG, the “relative binding free energy” value was 0.1 kcal/mol.

With GGTGGCACGTGTATGG, the “relative binding free energy” value is -0.02 kcal/mol.

As to GTAATCACGTGTCTGT, the “relative binding free energy” value was 0.1 kcal/mol.

Regarding GGTAGCACGTGGCTTA, the “relative binding free energy” value was -0.22 kcal/mol.

With TGAGTCACGTGATGAG, the “relative binding free energy” value was 0.31 kcal/mol.

In the case of CTTTCCACGTGTGGTG, the “relative binding free energy” value worked out at 0.1 kcal/mol.

Regarding GCTTACACGTGGAGGT, the “relative binding free energy” value was determined as 0.11 kcal/mol.

Regarding CATGGCACGTGTAATG, the “relative binding free energy” value amounted to 0.08 kcal/mol.

With CATTGCACGTGAGAGT, the “relative binding free energy” value stood at 0.21 kcal/mol.

For GTGTGCACGTGTGCGC, the “relative binding free energy” value is -0.02 kcal/mol.

On to TATGCCACGTGGCTGT, for which the “relative binding free energy” value is -0.29 kcal/mol.

For the sequence AGTGTCACGTGATTGT, the “relative binding free energy” value came to 0.21 kcal/mol.

As to TAAAGCACGTGTAATT, the “relative binding free energy” value was -0.03 kcal/mol.

TGGTGCACGTGTAAGA: the “relative binding free energy” value was determined as 0.08 kcal/mol.

For AGTGGCACGTGCATTG, the “relative binding free energy” value was -0.19 kcal/mol.

Regarding AAGTACACGTGGGTAG, the “relative binding free energy” value was -0.09 kcal/mol.

Take AGTTTCACGTGGGGCT: the “relative binding free energy” value worked out at 0.18 kcal/mol.

As to GTTTGCACGTGTCAAT, the “relative binding free energy” value was found to be 0.06 kcal/mol.

As for TGCTGCACGTGTTAAA, the “relative binding free energy” value stood at 0.14 kcal/mol.

Turning to TTGTTCACGTGACAAT, the “relative binding free energy” value turned out to be 0.3 kcal/mol.

As to TGTGTCACGTGAACTG, the “relative binding free energy” value was 0.24 kcal/mol.

As for ATTAGCACGTGTGTGC, the “relative binding free energy” value was -0.03 kcal/mol.

For TTTTGCACGTGCTGCA, the “relative binding free energy” value is -0.08 kcal/mol.

On to GAATGCACGTGGGCGT, for which the “relative binding free energy” value is -0.14 kcal/mol.

AGCAGCACGTGGTCGG: the “relative binding free energy” value was -0.12 kcal/mol.

As for TGGATCACGTGAGTGT, the “relative binding free energy” value was determined as 0.35 kcal/mol.

In the case of GATAACACGTGGGTAT, the “relative binding free energy” value was -0.04 kcal/mol.

With GTTGCCACGTGTGCGT, the “relative binding free energy” value is -0.04 kcal/mol.

On to GTAATCACGTGAGTGT, for which the “relative binding free energy” value amounted to 0.3 kcal/mol.

As to TCGGGCACGTGTGTCA, the “relative binding free energy” value is -0.14 kcal/mol.

As to TCGTTCACGTGGGGCC, the “relative binding free energy” value is 0.15 kcal/mol.

For the sequence TAGGTCACGTGGTTCC, the “relative binding free energy” value amounted to 0.14 kcal/mol.

With TTATACACGTGACTTG, the “relative binding free energy” value was determined as 0.23 kcal/mol.

Regarding TTTACCACGTGTGTAA, the “relative binding free energy” value is 0.01 kcal/mol.

As for AGTTACACGTGAATGA, the “relative binding free energy” value is 0.43 kcal/mol.

GAACTCACGTGTTGGG: the “relative binding free energy” value was 0.27 kcal/mol.

With TGCGTCACGTGGCGTA, the “relative binding free energy” value is -0.03 kcal/mol.

As for AGGAGCACGTGGGATA, the “relative binding free energy” value was -0.11 kcal/mol.

With AGTAGCACGTGCTGGG, the “relative binding free energy” value is -0.13 kcal/mol.

Consider AAAGGCACGTGTCGGT, for which the “relative binding free energy” value is -0.07 kcal/mol.

In the case of TCTGTCACGTGGGTAA, the “relative binding free energy” value came out at 0.04 kcal/mol.

GGCAACACGTGAGGGT: the “relative binding free energy” value was 0.25 kcal/mol.

GAGGGCACGTGTCAAG: the “relative binding free energy” value worked out at 0.06 kcal/mol.

Take AGTCTCACGTGAGGTG: the “relative binding free energy” value is 0.29 kcal/mol.

Consider TGAATCACGTGGGTTC, for which the “relative binding free energy” value was -0.01 kcal/mol.

As for GTTACCACGTGTGCGG, the “relative binding free energy” value came to 0.04 kcal/mol.

On to GGTCGCACGTGAGGCA, for which the “relative binding free energy” value is 0.29 kcal/mol.

Regarding ATTAACACGTGCGTTT, the “relative binding free energy” value is -0.06 kcal/mol.

For AGGATCACGTGTTTGA, the “relative binding free energy” value came out at 0.12 kcal/mol.

TAAGTCACGTGGAAGA: the “relative binding free energy” value turned out to be 0.18 kcal/mol.

Turning to GGTGTCACGTGAGCAT, the “relative binding free energy” value came to 0.24 kcal/mol.

Take GCTTGCACGTGGGTGA: the “relative binding free energy” value was -0.06 kcal/mol.

Regarding GCAGGCACGTGATGGA, the “relative binding free energy” value came out at 0 kcal/mol.

AGTATCACGTGAGAGT: the “relative binding free energy” value amounted to 0.29 kcal/mol.

Turning to GGTGGCACGTGGTTGT, the “relative binding free energy” value was -0.06 kcal/mol.

As for TGTGCCACGTGCTGGT, the “relative binding free energy” value is -0.27 kcal/mol.

With TGTGGCACGTGCTCGT, the “relative binding free energy” value is -0.25 kcal/mol.

For the sequence AGTTTCACGTGATTGT, the “relative binding free energy” value was 0.38 kcal/mol.

Take AGTTACACGTGATAGA: the “relative binding free energy” value stood at 0.29 kcal/mol.

With GTTGGCACGTGTGTCG, the “relative binding free energy” value is 0.01 kcal/mol.

For the sequence TAGAACACGTGTGCTT, the “relative binding free energy” value worked out at 0.18 kcal/mol.

For GGTGTCACGTGTATAA, the “relative binding free energy” value came out at 0.24 kcal/mol.

On to ATGTCCACGTGAGTTG, for which the “relative binding free energy” value was 0.15 kcal/mol.

In the case of TAATACACGTGCGGGG, the “relative binding free energy” value stood at 0.04 kcal/mol.

With ACATACACGTGTTAGT, the “relative binding free energy” value was found to be 0.12 kcal/mol.

For the sequence AAGGACACGTGTTGAG, the “relative binding free energy” value worked out at 0.02 kcal/mol.

Regarding AGGTCCACGTGGAGAT, the “relative binding free energy” value turned out to be 0.13 kcal/mol.

On to TGGCGCACGTGTAGGT, for which the “relative binding free energy” value was 0.09 kcal/mol.

For GACAGCACGTGGTAGT, the “relative binding free energy” value was -0.06 kcal/mol.

CGTTACACGTGTTAGG: the “relative binding free energy” value worked out at 0.15 kcal/mol.

With AAATGCACGTGATGGT, the “relative binding free energy” value was found to be 0.19 kcal/mol.

Turning to CGGTGCACGTGATCGT, the “relative binding free energy” value was determined as 0.02 kcal/mol.

GGTCTCACGTGGGGCT: the “relative binding free energy” value came to 0.15 kcal/mol.

With GTCCACACGTGGGTGT, the “relative binding free energy” value is -0.02 kcal/mol.

With AGGGTCACGTGAACGT, the “relative binding free energy” value was 0.19 kcal/mol.

Regarding AGGTGCACGTGGGGTC, the “relative binding free energy” value is -0.22 kcal/mol.

For the sequence TAGGGCACGTGATTGG, the “relative binding free energy” value was found to be 0.08 kcal/mol.

Consider GGAAGCACGTGTTAAT, for which the “relative binding free energy” value turned out to be 0.11 kcal/mol.

For GTCAGCACGTGTAGTG, the “relative binding free energy” value is -0.14 kcal/mol.

As for GTGGTCACGTGCAAGG, the “relative binding free energy” value was 0.14 kcal/mol.

For the sequence GGATTCACGTGAGATA, the “relative binding free energy” value came to 0.47 kcal/mol.

Turning to GTGTTCACGTGGGTCC, the “relative binding free energy” value is 0.28 kcal/mol.

Regarding TATGTCACGTGACGCG, the “relative binding free energy” value is 0.12 kcal/mol.

As to TGTATCACGTGTGGTT, the “relative binding free energy” value was found to be 0.17 kcal/mol.

Turning to GGTGTCACGTGAGATA, the “relative binding free energy” value was found to be 0.31 kcal/mol.

On to TATTACACGTGGGCGG, for which the “relative binding free energy” value was 0.08 kcal/mol.

For the sequence GGAGCCACGTGGCGGG, the “relative binding free energy” value was -0.33 kcal/mol.

Regarding TAAATCACGTGATGGC, the “relative binding free energy” value amounted to 0.31 kcal/mol.

For GAGGACACGTGCGGGT, the “relative binding free energy” value came to 0.03 kcal/mol.

Turning to GATGCCACGTGAAGGG, the “relative binding free energy” value came to 0.19 kcal/mol.

On to TGTTGCACGTGACCGT, for which the “relative binding free energy” value was -0.03 kcal/mol.

On to AACATCACGTGGGAGG, for which the “relative binding free energy” value worked out at 0.21 kcal/mol.

Turning to TGGAGCACGTGCGTTA, the “relative binding free energy” value is -0.15 kcal/mol.

For the sequence CGTATCACGTGTATAG, the “relative binding free energy” value was 0.11 kcal/mol.

Take GTGGTCACGTGAAGCG: the “relative binding free energy” value is 0.36 kcal/mol.

Consider AGGATCACGTGCAGGT, for which the “relative binding free energy” value was 0.16 kcal/mol.

On to GTGGCCACGTGATGAG, for which the “relative binding free energy” value amounted to 0.08 kcal/mol.

Take AGTCTCACGTGAAGTG: the “relative binding free energy” value amounted to 0.26 kcal/mol.

As to ATTGCCACGTGTTGGG, the “relative binding free energy” value is -0.16 kcal/mol.

As to GGGGCCACGTGTAGAA, the “relative binding free energy” value came out at 0.22 kcal/mol.

Consider TCAGACACGTGAAGGG, for which the “relative binding free energy” value stood at 0.25 kcal/mol.

For TTAAGCACGTGTATCG, the “relative binding free energy” value was -0.04 kcal/mol.

ATGGCCACGTGAGGGG: the “relative binding free energy” value came out at 0.08 kcal/mol.

For TGGATCACGTGTGAGT, the “relative binding free energy” value came out at 0.19 kcal/mol.

On to TATATCACGTGGCAGG, for which the “relative binding free energy” value was found to be 0.01 kcal/mol.

For CCGGTCACGTGTTTTT, the “relative binding free energy” value came out at 0.18 kcal/mol.

For TTCGACACGTGGGTTT, the “relative binding free energy” value was found to be 0.01 kcal/mol.

With GCATGCACGTGAGAGG, the “relative binding free energy” value was found to be 0.28 kcal/mol.
